These are yes or no findings as the source states them, for the method shown. Binding seen in cells or lysates may run through a third protein. Some binding calls cover weakened binding; strength is not graded here.
What was measured:
[1] = target: NCOA6 in HEK293T cells (precipitated with anti-NCOA6 Ab) (human (endogenous in HEK293T)) (UniProt Q14686); assay: co-IP; HEK293T cells overexpressing FLAG-NLRP3 (wild type, single domains or Walker mutant) and/or Myc-ASC for 24 h; lysates precipitated with anti-NCOA6 Ab and Protein G agarose; immunoblot
[2] = target: NLRP3, endogenous in THP-1 cells (human (endogenous in THP-1)) (UniProt Q96P20); assay: co-IP; PMA-differentiated THP-1 cells stimulated with ATP or LPS + ATP (also ATP with added extracellular KCl); lysates precipitated with anti-NLRP3 Ab and Protein G agarose, IP lysis buffer 20 mM Tris-Cl pH 7.5, 150 mM NaCl, 1% NP40; immunoblot
[3] = target: NLRP3, endogenous in THP-1 cells (human (endogenous in THP-1)) (UniProt Q96P20); assay: proximity ligation; PMA-stimulated THP-1 cells primed with LPS (100 ng/ml, 4 h) then ATP (5 mM, 30 min), fixed; anti-NCOA6 and anti-NLRP3 antibodies, Duolink

By UniProt entry, the sequences of proteins in these tests, tags left out. Where a name states a change or a piece, a line headed by the entry shows the natural chain unless it says otherwise.
UniProt Q14686: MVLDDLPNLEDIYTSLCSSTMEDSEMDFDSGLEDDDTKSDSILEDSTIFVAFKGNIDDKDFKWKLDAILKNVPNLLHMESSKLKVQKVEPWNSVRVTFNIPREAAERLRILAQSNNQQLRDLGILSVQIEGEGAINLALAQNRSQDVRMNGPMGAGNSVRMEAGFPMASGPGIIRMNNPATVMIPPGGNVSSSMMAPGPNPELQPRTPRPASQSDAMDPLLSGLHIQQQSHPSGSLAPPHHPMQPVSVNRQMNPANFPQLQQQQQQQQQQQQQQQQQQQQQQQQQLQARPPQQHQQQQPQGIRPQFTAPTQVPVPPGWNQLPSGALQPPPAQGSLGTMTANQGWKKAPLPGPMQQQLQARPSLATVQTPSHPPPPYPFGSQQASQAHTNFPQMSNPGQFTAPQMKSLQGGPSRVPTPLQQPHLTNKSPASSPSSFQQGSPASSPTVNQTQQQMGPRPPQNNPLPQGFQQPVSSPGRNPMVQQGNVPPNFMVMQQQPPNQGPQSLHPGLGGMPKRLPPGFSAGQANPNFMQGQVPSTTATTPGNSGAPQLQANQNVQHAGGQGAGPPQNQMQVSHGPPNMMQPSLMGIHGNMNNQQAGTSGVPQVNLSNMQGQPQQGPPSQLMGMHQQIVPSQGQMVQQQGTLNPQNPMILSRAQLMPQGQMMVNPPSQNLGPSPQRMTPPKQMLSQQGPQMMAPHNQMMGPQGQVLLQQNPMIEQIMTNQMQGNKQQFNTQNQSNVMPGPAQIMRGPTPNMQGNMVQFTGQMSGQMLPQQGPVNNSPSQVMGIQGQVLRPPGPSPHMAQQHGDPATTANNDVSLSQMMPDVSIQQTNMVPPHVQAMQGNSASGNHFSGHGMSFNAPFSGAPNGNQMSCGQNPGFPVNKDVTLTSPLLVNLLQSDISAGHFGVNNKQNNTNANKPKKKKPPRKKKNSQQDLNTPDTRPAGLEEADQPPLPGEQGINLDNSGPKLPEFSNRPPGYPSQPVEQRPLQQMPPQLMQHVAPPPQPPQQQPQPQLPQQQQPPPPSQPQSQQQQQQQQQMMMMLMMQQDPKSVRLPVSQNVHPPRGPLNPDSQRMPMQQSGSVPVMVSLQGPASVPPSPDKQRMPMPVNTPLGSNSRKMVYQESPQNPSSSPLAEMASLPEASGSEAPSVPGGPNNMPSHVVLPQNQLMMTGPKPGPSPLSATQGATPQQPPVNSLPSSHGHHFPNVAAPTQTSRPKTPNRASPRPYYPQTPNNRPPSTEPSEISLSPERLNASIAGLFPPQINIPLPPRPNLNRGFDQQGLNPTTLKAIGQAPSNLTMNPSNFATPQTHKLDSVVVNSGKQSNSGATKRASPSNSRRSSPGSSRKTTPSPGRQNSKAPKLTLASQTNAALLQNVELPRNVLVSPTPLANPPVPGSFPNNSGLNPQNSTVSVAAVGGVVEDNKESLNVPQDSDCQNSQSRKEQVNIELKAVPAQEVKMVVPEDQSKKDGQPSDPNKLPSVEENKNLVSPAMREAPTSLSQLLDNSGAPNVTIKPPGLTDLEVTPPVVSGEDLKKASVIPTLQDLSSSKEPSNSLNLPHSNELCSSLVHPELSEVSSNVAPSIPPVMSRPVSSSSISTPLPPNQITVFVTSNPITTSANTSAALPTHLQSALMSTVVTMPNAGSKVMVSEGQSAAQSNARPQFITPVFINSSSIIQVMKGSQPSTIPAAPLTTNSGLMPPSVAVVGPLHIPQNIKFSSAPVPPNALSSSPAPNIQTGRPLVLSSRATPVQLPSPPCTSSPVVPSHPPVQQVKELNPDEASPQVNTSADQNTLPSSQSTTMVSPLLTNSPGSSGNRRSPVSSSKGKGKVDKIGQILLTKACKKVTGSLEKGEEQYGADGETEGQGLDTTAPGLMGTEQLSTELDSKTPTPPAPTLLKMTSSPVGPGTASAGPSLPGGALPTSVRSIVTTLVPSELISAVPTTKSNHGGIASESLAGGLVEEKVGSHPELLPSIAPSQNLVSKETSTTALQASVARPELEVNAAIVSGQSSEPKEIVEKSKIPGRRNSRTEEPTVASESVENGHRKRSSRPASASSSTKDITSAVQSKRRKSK
UniProt Q96P20: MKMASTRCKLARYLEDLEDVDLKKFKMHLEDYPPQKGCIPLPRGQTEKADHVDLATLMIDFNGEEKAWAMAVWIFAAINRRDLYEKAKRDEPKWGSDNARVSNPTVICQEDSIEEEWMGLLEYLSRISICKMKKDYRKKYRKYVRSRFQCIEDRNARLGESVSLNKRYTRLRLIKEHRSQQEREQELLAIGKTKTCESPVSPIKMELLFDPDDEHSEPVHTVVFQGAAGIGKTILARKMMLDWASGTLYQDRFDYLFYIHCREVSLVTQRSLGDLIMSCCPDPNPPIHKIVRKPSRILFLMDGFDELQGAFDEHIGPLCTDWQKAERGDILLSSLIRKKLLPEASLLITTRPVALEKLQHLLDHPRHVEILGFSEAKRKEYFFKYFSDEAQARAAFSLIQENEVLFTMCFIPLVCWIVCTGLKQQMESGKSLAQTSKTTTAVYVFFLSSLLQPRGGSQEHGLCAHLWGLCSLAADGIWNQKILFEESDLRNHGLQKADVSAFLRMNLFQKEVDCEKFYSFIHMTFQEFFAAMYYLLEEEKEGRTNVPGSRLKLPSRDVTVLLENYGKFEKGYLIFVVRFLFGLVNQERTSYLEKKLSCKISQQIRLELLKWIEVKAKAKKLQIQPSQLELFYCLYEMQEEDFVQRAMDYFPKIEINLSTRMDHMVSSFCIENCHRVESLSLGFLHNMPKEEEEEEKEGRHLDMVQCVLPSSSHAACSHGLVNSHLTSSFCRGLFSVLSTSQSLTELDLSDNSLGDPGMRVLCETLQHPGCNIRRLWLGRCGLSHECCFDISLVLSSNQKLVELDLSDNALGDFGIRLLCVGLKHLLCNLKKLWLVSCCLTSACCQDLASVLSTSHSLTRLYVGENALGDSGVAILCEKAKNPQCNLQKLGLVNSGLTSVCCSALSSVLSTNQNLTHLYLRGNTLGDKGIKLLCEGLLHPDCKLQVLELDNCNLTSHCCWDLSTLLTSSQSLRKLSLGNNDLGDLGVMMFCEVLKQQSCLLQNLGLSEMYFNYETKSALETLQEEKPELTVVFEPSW
UniProt Q9ULZ3: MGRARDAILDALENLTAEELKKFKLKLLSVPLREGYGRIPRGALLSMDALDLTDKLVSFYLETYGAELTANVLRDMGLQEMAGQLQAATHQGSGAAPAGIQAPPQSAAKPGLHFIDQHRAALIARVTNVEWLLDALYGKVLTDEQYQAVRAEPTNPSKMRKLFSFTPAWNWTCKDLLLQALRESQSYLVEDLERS

| binding [1] | binding [2] | binding [3] | Substance |
| --- | --- | --- | --- |
| binds | – | – | FLAG-tagged NLRP3 NACHT domain (from UniProt Q96P20 220-536) (domain or fragment) |
| binds | – | – | FLAG-tagged NLRP3 full length (wild type) (from UniProt Q96P20 1-1036) |
| no binding | – | – | Myc-tagged ASC (from UniProt Q9ULZ3 1-195) |
| – | binds | binds | Nuclear receptor coactivator 6 (NCOA6), endogenous in THP-1 cells (from UniProt Q14686 1-2063) |

Reference: PMC10902316
